From paper PMC9911399, “Two distinct binding modes provide the RNA-binding protein RbFox with extraordinary sequence specificity” come the findings set out here.

Substitutions are numbered along the chain they refer to; changes in the protein carry UniProt numbers. The list shows a part of the results.

T1: RBFOX1 RRM (Homo sapiens, UniProt Q9NWB1 109-208)
T1 sequence: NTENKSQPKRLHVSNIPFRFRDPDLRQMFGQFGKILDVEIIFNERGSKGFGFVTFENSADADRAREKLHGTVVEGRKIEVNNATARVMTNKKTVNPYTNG

B1: AAAUCUA (DNA:RNA)
RNA: GGGAGACCGGAAUUCAGAUUGUCCAAAUCUAUUAAAUCCCGUCGUAGCCACCA
DNA 1: CAATCTGAATTCCGGTCTCCC
DNA 2: TGGTGGCTACGACGGGATT
B2: UGUCUGG (DNA:RNA)
RNA: GGGAGACCGGAAUUCAGAUUGUCCUGUCUGGUUAAAUCCCGUCGUAGCCACCA
DNA 1: CAATCTGAATTCCGGTCTCCC
DNA 2: TGGTGGCTACGACGGGATT
B3: UCCCGCG (DNA:RNA)
RNA: B2 RNA with G26C, U27C, U29G, G30C
DNA 1: CAATCTGAATTCCGGTCTCCC
DNA 2: TGGTGGCTACGACGGGATT
B4: AGUUUCU (DNA:RNA)
RNA: B2 RNA with U25A, C28U, G30C, G31U
DNA 1: CAATCTGAATTCCGGTCTCCC
DNA 2: TGGTGGCTACGACGGGATT
B5: CUUCAAU (DNA:RNA)
RNA: B2 RNA with U25C, G26U, U29A, G30A, G31U
DNA 1: CAATCTGAATTCCGGTCTCCC
DNA 2: TGGTGGCTACGACGGGATT
B6: GGGUAAU (DNA:RNA)
RNA: B1 RNA with A25G, A26G, A27G, C29A, U30A, A31U
DNA 1: CAATCTGAATTCCGGTCTCCC
DNA 2: TGGTGGCTACGACGGGATT
B7: GUCACUG (DNA:RNA)
RNA: B1 RNA with A25G, A26U, A27C, U28A, A31G
DNA 1: CAATCTGAATTCCGGTCTCCC
DNA 2: TGGTGGCTACGACGGGATT
B8: CCGUCCU (DNA:RNA)
RNA: B1 RNA with A25C, A26C, A27G, U30C, A31U
DNA 1: CAATCTGAATTCCGGTCTCCC
DNA 2: TGGTGGCTACGACGGGATT
B9: AGCCGCU (DNA:RNA)
RNA: B2 RNA with U25A, U27C, U29G, G30C, G31U
DNA 1: CAATCTGAATTCCGGTCTCCC
DNA 2: TGGTGGCTACGACGGGATT
B10: GAGUACG (DNA:RNA)
RNA: B1 RNA with A25G, A27G, C29A, U30C, A31G
DNA 1: CAATCTGAATTCCGGTCTCCC
DNA 2: TGGTGGCTACGACGGGATT
B11: GAAGCAC (DNA:RNA)
RNA: B1 RNA with A25G, U28G, U30A, A31C
DNA 1: CAATCTGAATTCCGGTCTCCC
DNA 2: TGGTGGCTACGACGGGATT
B12: CCCUCAA (DNA:RNA)
RNA: B1 RNA with A25C, A26C, A27C, U30A
DNA 1: CAATCTGAATTCCGGTCTCCC
DNA 2: TGGTGGCTACGACGGGATT
B13: CGUUUCU (DNA:RNA)
RNA: B2 RNA with U25C, C28U, G30C, G31U
DNA 1: CAATCTGAATTCCGGTCTCCC
DNA 2: TGGTGGCTACGACGGGATT
B14: AACUAGC (DNA:RNA)
RNA: B1 RNA with A27C, C29A, U30G, A31C
DNA 1: CAATCTGAATTCCGGTCTCCC
DNA 2: TGGTGGCTACGACGGGATT
B15: AAUGCGA (DNA:RNA)
RNA: B1 RNA with A27U, U28G, U30G
DNA 1: CAATCTGAATTCCGGTCTCCC
DNA 2: TGGTGGCTACGACGGGATT
B16: GGAACAC (DNA:RNA)
RNA: B1 RNA with A25G, A26G, U28A, U30A, A31C
DNA 1: CAATCTGAATTCCGGTCTCCC
DNA 2: TGGTGGCTACGACGGGATT
B17: AUCAAAG (DNA:RNA)
RNA: B1 RNA with A26U, A27C, U28A, C29A, U30A, A31G
DNA 1: CAATCTGAATTCCGGTCTCCC
DNA 2: TGGTGGCTACGACGGGATT
B18: UUUCAUG (DNA:RNA)
RNA: B2 RNA with G26U, U29A, G30U
DNA 1: CAATCTGAATTCCGGTCTCCC
DNA 2: TGGTGGCTACGACGGGATT
B19: GUCGUCU (DNA:RNA)
RNA: B2 RNA with U25G, G26U, U27C, C28G, G30C, G31U
DNA 1: CAATCTGAATTCCGGTCTCCC
DNA 2: TGGTGGCTACGACGGGATT
B20: ACCCUUC (DNA:RNA)
RNA: B1 RNA with A26C, A27C, U28C, C29U, A31C
DNA 1: CAATCTGAATTCCGGTCTCCC
DNA 2: TGGTGGCTACGACGGGATT
B21: GGCCGAG (DNA:RNA)
RNA: B2 RNA with U25G, U27C, U29G, G30A
DNA 1: CAATCTGAATTCCGGTCTCCC
DNA 2: TGGTGGCTACGACGGGATT
B22: ACUAAUA (DNA:RNA)
RNA: B1 RNA with A26C, A27U, U28A, C29A
DNA 1: CAATCTGAATTCCGGTCTCCC
DNA 2: TGGTGGCTACGACGGGATT
B23: GUUGGCU (DNA:RNA)
RNA: B2 RNA with U25G, G26U, C28G, U29G, G30C, G31U
DNA 1: CAATCTGAATTCCGGTCTCCC
DNA 2: TGGTGGCTACGACGGGATT
B24: GCGUGGG (DNA:RNA)
RNA: B2 RNA with U25G, G26C, U27G, C28U, U29G
DNA 1: CAATCTGAATTCCGGTCTCCC
DNA 2: TGGTGGCTACGACGGGATT
B25: AGAUCUC (DNA:RNA)
RNA: B1 RNA with A26G, A31C
DNA 1: CAATCTGAATTCCGGTCTCCC
DNA 2: TGGTGGCTACGACGGGATT
B26: CGUAUGC (DNA:RNA)
RNA: B2 RNA with U25C, C28A, G31C
DNA 1: CAATCTGAATTCCGGTCTCCC
DNA 2: TGGTGGCTACGACGGGATT
B27: CGGUUGC (DNA:RNA)
RNA: B2 RNA with U25C, U27G, C28U, G31C
DNA 1: CAATCTGAATTCCGGTCTCCC
DNA 2: TGGTGGCTACGACGGGATT
B28: AAGAAUU (DNA:RNA)
RNA: B1 RNA with A27G, U28A, C29A, A31U
DNA 1: CAATCTGAATTCCGGTCTCCC
DNA 2: TGGTGGCTACGACGGGATT
B29: UCUUGGA (DNA:RNA)
RNA: B2 RNA with G26C, C28U, U29G, G31A
DNA 1: CAATCTGAATTCCGGTCTCCC
DNA 2: TGGTGGCTACGACGGGATT
B30: UGACAAC (DNA:RNA)
RNA: B2 RNA with U27A, U29A, G30A, G31C
DNA 1: CAATCTGAATTCCGGTCTCCC
DNA 2: TGGTGGCTACGACGGGATT
B31: GACUGAA (DNA:RNA)
RNA: B1 RNA with A25G, A27C, C29G, U30A
DNA 1: CAATCTGAATTCCGGTCTCCC
DNA 2: TGGTGGCTACGACGGGATT

In the assay the target is T1, RBFOX1 RRM. Description: EMSA; HiTS-Eq, 1 nM pool, 10 min; buffer printed only for the single-RNA assays: 10 mM Tris pH 7.5, 150 mM NaCl, 3.4 mM EDTA, 0.001% NP-40, 30 C. To be noted: tags: His6 N-terminal (pET28a); label: 5' 32P. In short, it runs like this: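 Purified RbFox RRM (wild type or mutant) was equilibrated for 10 min in 50 µL with 1 nM of a 5′-radiolabelled pool of RNA with 7 randomized nucleotides, its flanks annealed to DNA oligonucleotides, across increasing protein concentrations. Free RNA was separated by 8% native PAGE, excised, reverse-transcribed, PCR-barcoded and sequenced on an Illumina HiSeq 2500. Relative association constants came from read-count changes of each variant against the control reaction, normalised to the cognate motif.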
On to B1, for which the binding signal is 0.00218 KA relative to UGCAUGU.

B2: the binding signal was 0.031 KA relative to UGCAUGU.

With B3, the binding signal is 0.00158 KA relative to UGCAUGU.

As to B4, the binding signal is 0.0077 KA relative to UGCAUGU.

Turning to B5, the binding signal is 0.00338 KA relative to UGCAUGU.

Turning to B6, the binding signal was 0.0136 KA relative to UGCAUGU.

As for B7, the binding signal is 0.0171 KA relative to UGCAUGU.

In the case of B8, the binding signal is 0.00583 KA relative to UGCAUGU.

With B9, the binding signal was 0.00308 KA relative to UGCAUGU.

With B10, the binding signal is 0.0132 KA relative to UGCAUGU.

B11: the binding signal is 0.0112 KA relative to UGCAUGU.

Consider B12, for which the binding signal is 0.00605 KA relative to UGCAUGU.

On to B13, for which the binding signal was 0.0116 KA relative to UGCAUGU.

Consider B14, for which the binding signal was 0.00452 KA relative to UGCAUGU.

In the case of B15, the binding signal was 0.00943 KA relative to UGCAUGU.

As to B16, the binding signal was 0.0079 KA relative to UGCAUGU.

As for B17, the binding signal is 0.00193 KA relative to UGCAUGU.

Take B18: the binding signal is 0.0161 KA relative to UGCAUGU.

With B19, the binding signal was 0.014 KA relative to UGCAUGU.

In the case of B20, the binding signal is 0.000934 KA relative to UGCAUGU.

With B21, the binding signal was 0.0143 KA relative to UGCAUGU.

Regarding B22, the binding signal was 0.00101 KA relative to UGCAUGU.

In the case of B23, the binding signal is 0.0265 KA relative to UGCAUGU.

As to B24, the binding signal was 0.0174 KA relative to UGCAUGU.

As for B25, the binding signal is 0.00709 KA relative to UGCAUGU.

Turning to B26, the binding signal is 0.014 KA relative to UGCAUGU.

With B27, the binding signal was 0.0256 KA relative to UGCAUGU.

On to B28, for which the binding signal is 0.00388 KA relative to UGCAUGU.

For B29, the binding signal is 0.00408 KA relative to UGCAUGU.

Consider B30, for which the binding signal was 0.00863 KA relative to UGCAUGU.

For B31, the binding signal was 0.0274 KA relative to UGCAUGU.
